{"source": "patent US20250264455A1", "about": "(HELMHOLTZ ZENTRUM M NCHEN DEUTSCHES FORSCHUNGSZENTRUM F R …, published 2025)", "key": {"[1]": {"target": "T1, sfGFP-SasG-G51-G54-mCherry", "T1 construct": "also called sfGFP-G51-G54-mCherry; ~30 nm linker", "experiment": "TEM of co-expressing HEK293T cells"}, "[2]": {"target": "T2, sfGFP-SasG(G51-G52)-mCherry", "T2 construct": "Hetero-bifunctional scaffold: sfGFP, S. aureus SasG G51-E1-G52 (amino acids 419-629), mCherry; also called ~16 nm linker", "experiment": "live wide-field fluorescence microscopy and TEM of co-expressing HEK293T cells"}}, "data": [{"binder": "P2-TmEnc-antimCherry intrabody (LaM-4) (other, also called P2-TmEnc^antimcherryIB (LaM-4)) MSPEDKIAQLKEKNAALKEKNQQLKEKIQALKYGGGGGSGPGEFLKRSFAPLTEKQWQEIDNRAREIFKTQLYGRKFVDVEGPYGWEYAAHPLGEVEVLSDENEVVKWGLRKSLPLIELRATFTLDLWELDNLERGKPNVDLSSLEETVRKVAEFEDEVIFRGCEKSGVKGLLSFEERKIECGSTPKDLLEAIVRALSIFSKDGIEGPYTLVINTDRWINFLKEEAGHYPLEKRVEECLRGGKIITTPRIEDALVVSERGGDFKLILGQDLSIGYEDREKDAVRLFITETFTFQVVNPEALILLKGSGSGSETTGAQVQLVESGGSLVQPGGSLRLSCAASGRFAESSSMGWFRQAPGKEREFVAAISWSGGATNYADSAKGRFTLSRDNTKNTVYLQMNSLKPDDTAVYYCAANLGNYISSNQRLYGYWGQGTQVTVS", "values": [{"measurement": "binding result", "setting": "[1]", "result": "binds"}, {"measurement": "binding result", "setting": "[2]", "result": "binds"}]}]}
